We go through 88 sequences from the supplement of paper PMC11417369.

Some of the results follow.

The test system of the test is PfHDP1 homeodomain (GST-tagged). In words: gcPBM binding intensity (ln(normalized median fluorescence intensity)); higher = stronger DNA binding. In outline: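 Binding intensity values are the highest Masliner-normalised natural-log median intensity among replicate spots of either probe orientation. The binding step lasted 1 h in 1× PBS with 1% milk, 0.2 mg/ml BSA, 0.5% salmon testes DNA and 0.03% Triton X-100, using GST-tagged P. falciparum DNA-binding domains expressed in E. coli on an Agilent 4 × 180k array of primer-extended double-stranded 36-bp intergenic genomic probes plus negative controls. Alexa488 anti-GST antibody and a 488 nm scan detected bound protein.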
Take “AAAATATATCAAAATAGTACATAATTTTTTAAGAAT [XGTACX_site3515]”: the “gcPBM binding intensity (ln)” value is 6.41.
With “TTTTTTTCTTTTTTTTGTACTCATACATACTATCAT [XGTACX_site607]”, the “gcPBM binding intensity (ln)” value was 6.42.
Take “GTAGTAATAAATCTAGTGCATTATATATAACAAAAA [GTGCAC_site9803]”: the “gcPBM binding intensity (ln)” value was 9.9.
The figure for “TTACTATGTAAACACACATGCAATATATGTTAAGCC [TGCATGCA_site253]” is 6.57; for “TTATATGAAAATTATTGTACAATCTATAAAAAAAAT [XGTACX_site4194]” it is 6.85; for “GTAATTATATACATACGTACATACACATATGTATAT [XGTACX_site4149]” it is 6.55.
The figure for “TAATTTTTGTAAACAGTCATGGATTCAAAAAAAAAA [CACACA_negctrl_site593]” is 6.04; for “GGATATATGAAACATATTGAAAAACCGTTTAGTACA [CACACA_negctrl_site132]” it is 6.39.
The figure for “AAGGAAATAAGAAAAAGTACACATAAGTATATAACA [XGTACX_site1173]” is 6.47; for “TAATAATCAAACTATACACACATAAATAAATATATA [CACACA_site156]” it is 6.52.
On to “CACGTGTAAATAGTTTTACAATATCTCGATATGTAT [CACACA_negctrl_site785]”, for which the “gcPBM binding intensity (ln)” value was 6.34.
The figure for “TATTGCCCTTGACACACACACATATAAATAAATATA [CACACA_site7220]” is 7.07; for “TTAAACCGTGGGAGCACACACACACCCAGACACATA [CACACA_site4337]” it is 6.4; for “AAATATGTATATATATATATATATATATATATATAT [GTGCAC_negctrl_site335]” it is 9.43.
“TTATGGGACTCAAATACATGCAAAAATATTTTTAAG [TGCATGCA_site559]”: the “gcPBM binding intensity (ln)” value is 6.74.
As for “TAAGGTTAAATAATATGTACATATTATTATATATAT [XGTACX_site6953]”, the “gcPBM binding intensity (ln)” value came out at 7.01.
The figure for “AAATATAATAAAATGACACACGCATATATATATATA [CACACA_site8900]” is 9.38; for “ATATATCCAAATAGATTACATATATATATATAGATA [TGCATGCA_negctrl_site277]” it is 6.34.
For the sequence AAATAAGAACATAGAATGCACTTTTTTTTTTTTTCC, the “gcPBM binding intensity (ln)” value amounted to 7.03.
The figure for “AACATTATAAGACACACACACACATATATAAATATA [CACACA_site6622]” is 6.99; for “ATATATTTATATATTGCACACAAAAAAAAAAAAAAA [CACACA_site8468]” it is 10.5; for “GTATATATACATAAATGTACATATATATAAAAAATG [XGTACX_site3271]” it is 6.41.
In the case of “AATATATAAGTCTACTGTACCCAAAATAAAATTTAT [XGTACX_site8727]” it was 6.18.
Turning to “TTCATTTTAATAATATGTACATAATATATTTAAAAA [XGTACX_site634]”, the “gcPBM binding intensity (ln)” value came out at 6.47.
The figure for “GTATATATATTTGTACGTACATATTGTTGTAAACAC [XGTACX_site8833]” is 6.87.
In the case of “TTTTTTATTGTGATACGTATATTATTTTATGATTAA [GTGCAC_negctrl_site202]” it was 6.82; in that of “AAGAGAGACATCAACACACATACGTATGTATAGAAA [CACACA_site1397]”, 6.5.
On to “TATATTTATGTATATGTGCACATAAATTTAAGAATG [GTGCAC_site9512]”, for which the “gcPBM binding intensity (ln)” value turned out to be 10.9.
The figure for “ATAGCCAAAAATCATGCACACCTAAAAAAAAAAAAA [CACACA_site8826]” is 8.39.
For “CGTATGCGTATATACACACCCACGTATATATATAAA [CACACA_site3200]”, the “gcPBM binding intensity (ln)” value was found to be 6.66.
In the case of “ATTTTTAATCATTTACAACCTAGTGATTATACAAAT [CACACA_negctrl_site1089]”, the “gcPBM binding intensity (ln)” value amounted to 6.4.
The figure for “ATATAATAATTGTACACATGCACACACAAATATTAT [TGCATGCA_site204]” is 8.83; for “AAGGAATATTAAGTGGGTACTAAAAAAAAATTAATT [XGTACX_site331]” it is 6.53; for “TTAAAGCACCCATGCACACACACAAGGGAAAAGAAA [CACACA_site4289]” it is 8.12.
The figure for “TTTTTAATTAACTTTGTAAACTTATATATATATATA [TGCATGCA_negctrl_site311]” is 9.25; for “TGTATATAGAAACATACACACATATTAATTTTACAT [CACACA_site3126]” it is 6.51.
In the case of “TTTTTTATTAAAAGCGAAAAAAATGAAAACTTTTTT [GTGCAC_negctrl_site605]” it was 5.98.
Take “GGGGGTAGGGGAAGAAGTACAATGATCACTACAGTA [XGTACX_site1169]”: the “gcPBM binding intensity (ln)” value turned out to be 7.85.
In the case of “TCCAATTAAATATATGAACACACATGTGAACTTTCT [CACACA_site9318]” it was 6.32.
In the case of “TTAAGTCATAAATAAAGTACATAAATATAATATATA [XGTACX_site6304]” it was 6.12; in that of “ATGTAAATGTTATTATGTACATATTTATTCTTCAAA [XGTACX_site7377]”, 6.43; in that of “TTTTTTCTTTAATACTCAATATGATAAAAGTAACAC [XGTACX_negctrl_site163]”, 6.52.
For “AAAGTTTTTACCAAGTGTACATATATATATATATAT [XGTACX_site5786]”, the “gcPBM binding intensity (ln)” value was 9.33.
In the case of “GTTAAAATTTGTCAATGTACAGAAATAATAAAAAAA [XGTACX_site1879]” it was 6.75.
The figure for GTTTATTTATTTTATGTGCACATATAACAAAAAAAA is 10.7; for “TATTTTTTTTAGCGTACATGCAAAAAAAAAAAAAAA [TGCATGCA_site555]” it is 6.33; for “GACCCAATGAAAAGGTCACACATTTTTTCTTTTCGA [CACACA_site5074]” it is 5.84.
The figure for “AAAAATAAAAAGAATTGTACATATAAATCATATACA [XGTACX_site6860]” is 5.86; for “TAAAAATATATAAACAGTACATAAATTAAATAAATA [XGTACX_site6962]” it is 6.44; for “ATTTTGTATATATTTTGTACATATTTTGTATATATT [XGTACX_site885]” it is 6.64.
In the case of “AAATATTATACAAAAAAAAAAAAAAAAAAAATATAT [CACACA_negctrl_site52]”, the “gcPBM binding intensity (ln)” value is 6.16.
With “TTGTTTTTAAGAAAAACACACACTCCTGTTATTTTA [CACACA_site9230]”, the “gcPBM binding intensity (ln)” value amounted to 6.19.
The figure for “GTATGTATAATATACACACTCACAAGCATTCAAATA [CACACA_site267]” is 6.51; for “ATATAAACATGTTTGTGTACGTAATATGAAAAATAA [XGTACX_site8157]” it is 7.22.
In the case of “TTAGGACAAAAAAAAATAAAAATAAAATAAAATAAT [CACACA_negctrl_site1613]” it was 6.42.
The figure for “ATTTTTTTTTTTATAGTGGAACCACATTTGCCATTT [CACACA_negctrl_site1247]” is 6.47.
“TATTAAATGAAACAAACACACATAGCCTTTAAATAT [CACACA_site1560]”: the “gcPBM binding intensity (ln)” value is 6.62.
On to “ATATATATATCATATTGTACATATTATTGTATAATC [XGTACX_site5020]”, for which the “gcPBM binding intensity (ln)” value was 8.16.
As to “AAATTATATATATTTACATGCAATATAATGAAATAA [TGCATGCA_site229]”, the “gcPBM binding intensity (ln)” value was determined as 6.46.
Consider “ATAAAATAAAACAGAGCACACATTTTATTTACATTC [CACACA_site696]”, for which the “gcPBM binding intensity (ln)” value came out at 6.74.
On to “TACACATACAGACATACACACATACACATATACACA [CACACA_site6918]”, for which the “gcPBM binding intensity (ln)” value was 7.13.
The figure for “AAAAAAAAAAAAAACACACACACACGCACATATACA [CACACA_site7288]” is 6.98; for “CCACTTGTGTAATGTTGTACAAAAATAAATATATTT [XGTACX_site4598]” it is 6.68.
The figure for “CTATGAACACACACATGTACATATATTAACTCGCTA [XGTACX_site8805]” is 6.65; for “ATAATTAAAAATAATATATATATAATATGATATTAT [GTGCAC_negctrl_site194]” it is 6.43.
For “TATCTTCATTGTTGACGTACAGTATTTCTAAACGTT [XGTACX_site3439]”, the “gcPBM binding intensity (ln)” value was 6.45.
Regarding “TAAATATATATAACATGTACATAAAATATATATATA [XGTACX_site4431]”, the “gcPBM binding intensity (ln)” value was 8.09.
The figure for “AGGCCTTTTAGTATTTCACACACGTAAATGCGTATA [CACACA_site1108]” is 6.26; for “TTTTTGTTAAAATAAATATTATAAATATATTAATAT [TGCATGCA_negctrl_site239]” it is 6.29; for “TACATATTTTATAGCACACAAATAATAATATGTAGT [CACACA_site688]” it is 6.5.
The figure for “AAAAAAAAAAAAATGTGGACACAATTGTGTGTTTGT [XGTACX_site3563]” is 7.21; for “GTTGTGGAAAGAAGTTGTACATAAAATATTATATAA [XGTACX_site4352]” it is 6.5.
The figure for “CGAGCAAGACGGGGTGCACACAAACTAATATGCCGA [CACACA_site7936]” is 9.58; for “TACCTTTATTAATAAAGTACATTAATCTGTGTATAC [XGTACX_site8720]” it is 6.4; for “ATTATTATGTAGAAGGTGCTATGTTCTATAAATATA [GTGCAC_site9545]” it is 6.28.
For the sequence “CATAAAAATGAACATACACACATATATATATATATA [CACACA_site2498]”, the “gcPBM binding intensity (ln)” value is 9.29.
Regarding “TTGCTTTCTTTTTTTTGTACTCATATCTACTATCAT [XGTACX_site7711]”, the “gcPBM binding intensity (ln)” value is 7.38.
In the case of “ATATATATATATATATGTACATACCCAATTGTGTAA [XGTACX_site6352]” it was 9.15.
The figure for “ATTTAAAATGGTTATACACACATAAAAGGGGAAATG [CACACA_site2649]” is 7.2; for “TACAGACATACATACACACATACATATATATATATA [CACACA_site1940]” it is 9.13.
“AAATATAAAAAAAAAAGTACTTTGTTACTTTTCTAT [XGTACX_site6034]”: the “gcPBM binding intensity (ln)” value was found to be 5.71.
On to “TTTTTATTAAATAAAGCACACACAACAACTTTTCAC [CACACA_site9372]”, for which the “gcPBM binding intensity (ln)” value was determined as 7.2.
As for “AACTGCAAAAAAAGACGTACAAATTATTAATTGCAA [XGTACX_site8929]”, the “gcPBM binding intensity (ln)” value turned out to be 6.5.
In the case of “AAAATAAATATAACCACACACGAAAGAGAGAGAAAA [CACACA_site3272]” it was 6.73; in that of “TAACCATAAGAAGATTGTACATAATAAAAGTATTCT [XGTACX_site1117]”, 6.31; in that of “ATCGAAGGGGTACAAAATAAAAATAATTCTTTCAAA [TGCATGCA_negctrl_site373]”, 6.23.
On to “GTATATATCTAAAAATATATATATATATATATATAT [CACACA_negctrl_site788]”, for which the “gcPBM binding intensity (ln)” value was found to be 9.51.
As for “AAGTGTTATGAAATATGTACACATATATTATATATA [XGTACX_site6022]”, the “gcPBM binding intensity (ln)” value was found to be 6.56.
